# From PubChem BioAssay AID652104 (National Center for Advancing Translational Sciences (NCATS), 2013)
# Out of some 410,000 compounds screened, about 7,200 (1.8%) were called active. The shares of active, inactive and inconclusive entries below differ from those in the screen. Calls follow the shape of the dose curve; as a rule, active = well fitted activation curve with a large enough effect; inconclusive = small, poorly fitted or top-dose-only effect, or another doubt; inactive = no such curve, though single readings can be large or run the other way. No potency is given beside an inconclusive call; the fits are too rough.
# Experiment: qHTS of TDP-43 Inhibitors; also: nearly all actives have a fitted effect of over 50% in size; as to growth rescue (activation): % of control where 0% means no effect
# Settings: TDP-43 expressing yeast growth rescue, BacTiter-Glo, 24 h; growth rescue (activation): at 46.1 µM (top of the series) unless noted
# How it was run: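 Yeast expressing TDP-43 (pregrown in raffinose, seeded at OD600=0.02 in galactose medium) exposed to compounds 24 hr at 30 deg C. Growth read by BacTiter-Glo luminescence; rescue of toxicity appears as increased signal.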
# Potency is read from the fitted curve at half-maximal effect; tags tell the direction and shape of the fitted curve.
Structure (SMILES),Potency,growth rescue (activation)
CCCC(=O)Nc1ccc(N2CCN(C(=O)c3ccccc3C)CC2)cc1,"inconclusive [activator, single point]",–
CCCCNC(=O)COCc1cc(-c2ccc3c(c2)OCO3)on1,"inconclusive [activator, single point]",–
O=C(NC1CCCCCC1)c1ccc2nc3cc(Cl)ccc3c(=O)n2c1,–,inactive: -9.99%
N#Cc1cccnc1N1CCN(C(=O)c2ccc3c(c2)S(=O)(=O)c2ccccc2C3=O)CC1,–,inactive: -17.5%
COC(=O)c1ccc(CSc2ncnc3ccccc23)o1,"inconclusive [activator, partial curve]",–
COc1ccc(S(=O)(=O)N2CCC(C(N)=O)(N3CCCCC3)CC2)cc1,–,inactive: 6.8%
Cn1nnc2c(N3CCN(c4ccccc4)CC3)ncnc21,"inconclusive [activator, single point]",–
CSc1ccc(C2=CC(=O)C[C@H](c3ccc(F)cc3)C2)cc1,active: 22.4 µM,–
COc1ccc(C(=O)N[C@H](C(=O)NCC2CCCCC2)C(C)C)cc1,"inconclusive [activator, partial curve]",–
O=C(Nc1cccc(-c2csc(Nc3ccccc3)n2)c1)c1ccccc1,active: 6.31 µM,–
COc1cccc(C(=O)c2cc3cc(Cl)ccc3[nH]2)c1,"inconclusive [activator, full curve, poor fit]",–
Cc1ccnc(NC(=S)NC(=O)c2cccs2)c1,active: 15.8 µM,–
COc1ccc(CN2CCN(Cc3ccccc3C(F)(F)F)CC2)c(OC)c1,"inconclusive [activator, partial curve]",–
N#Cc1ccc(-c2nc3c4ccccc4ccn3c2Cc2cccc(Cl)c2)cc1,"inconclusive [activator, partial curve, poor fit]",–
S=C(c1ccc(N2CCCC2)c(Br)c1)N1CCCCC1,"inconclusive [activator, partial curve]",–
COc1ccccc1N1CCN(C(=O)c2ccc(C(C)(C)C)cc2)CC1,"inconclusive [activator, single point]",–
O=c1[nH]c2ccc(NCc3ccc(OCc4ccccc4Cl)cc3)cc2[nH]1,"inconclusive [activator, partial curve]",–
COc1ccc(CN(C#N)c2nc(C)cc(C)n2)cc1,"inconclusive [activator, single point]",–
COc1ccc(-c2ccc3ccccc3n2)cc1OC,"inconclusive [activator, partial curve]",–
CCC1CCCCN1C(=O)CSc1nnc(-c2cccc(Cl)c2)o1 (configuration not stated),"inconclusive [activator, single point]",–
Cc1ccc(NC(=O)c2ccccc2NS(=O)(=O)c2ccc(Cl)s2)cc1S(=O)(=O)N1CCOCC1,"inconclusive [activator, single point]",–
CCOc1cc(CNC(=O)c2ccc(Cn3c(=O)c4cccn4c4cccnc43)cc2)ccc1OC,"inconclusive [activator, single point]",–
O=C1/C(=C\c2ccc([N+](=O)[O-])cc2)CS(=O)(=O)C/C1=C/c1ccc([N+](=O)[O-])cc1,–,inconclusive: -93.3% [activator]

Structure (SMILES),Potency,growth rescue (activation)
CN(C)c1nc(OCCOC(=O)COc2ccc(Cl)cc2Cl)nc(N(C)C)n1,–,inactive: -9.11%
CCC(Sc1nnc(C)n2c1cc1sccc12)C(=O)Nc1ccccc1F (configuration not stated),"inconclusive [activator, partial curve]",–
COCCNC(=O)c1c(-c2ccccc2)c(-c2ccccc2)nn(C)c1=O,–,inactive: -4.05%
CCOC(=O)c1c(C)c(-c2ccccc2)n(CC(=O)NCc2cccc(OC)c2)c1C,"inconclusive [activator, partial curve, poor fit]",–
S=C(NNc1ccnc2cc(Cl)ccc12)Nc1ccc(Cl)cc1Cl,"inconclusive [activator, single point]",–
O=C(Nc1nc(-c2cccs2)cs1)c1ccc(Cl)cc1,active: 35.5 µM,–
COc1ncccc1C(=O)NC1CCCc2c1cnn2-c1ccc(C)c(C)c1 (configuration not stated),"inconclusive [activator, single point]",–
CCc1ccccc1NC(=O)Nc1ccsc1C(=O)OC,"inconclusive [activator, partial curve]",–
COc1ccc(-c2cc(C(=O)OCC(=O)N3CCCC3)c3ccccc3n2)cc1,"inconclusive [activator, single point]",–
CCOC(=O)c1nnc(-c2ccc(C)cc2)nc1N1CCSCC1,"inconclusive [activator, partial curve, poor fit]",–
COc1ccc(CC(=O)N2CCN(c3cccc(Cl)c3)CC2)cc1OC,"inconclusive [activator, single point]",–
CCOc1ccccc1NC(=S)Nc1ncccc1C,active: 14.1 µM,–
CN(C#N)c1nc(Cl)nc(Nc2cccc(Cl)c2)n1,"inconclusive [activator, partial curve]",–
C#CCNC(=O)C1=C[C@@H](c2ccc(Br)cc2)C[C@@H](OCc2ccc(CO)cc2)O1,"inconclusive [activator, single point]",–
Nc1c(S(=O)(=O)c2cccc(Cl)c2)c2nc3ccccc3nc2n1CCN1CCOCC1,–,inactive: 0%
O=S(=O)(c1ccc(-c2csc(-c3cccnc3)n2)cc1)N1CCOCC1,"inconclusive [activator, partial curve]",–
CCOc1ncccc1C(=O)OCCCC(=O)c1ccc(Br)cc1,"inconclusive [activator, single point]",–
CCn1c(C2CC(=O)N(Cc3ccccc3)C2)nc2ccccc21 (configuration not stated),"inconclusive [activator, full curve]",–
CCCCCN(C(=O)CCC(=O)OC(C)C(=O)NCc1ccccc1)c1c(N)n(CCCC)c(=O)[nH]c1=O (configuration not stated),–,inactive: -8.53%
COc1ccc(Br)c(Cn2c(C)c(C(=O)N(C)Cc3ccc(F)cc3)sc2=O)c1,"inconclusive [activator, single point]",–
O=C(NCc1ccc(F)cc1)c1cc(C2CCCN(C(=O)CCCc3ccccc3)C2)on1 (configuration not stated),active: 17.8 µM,–
CC(=O)NCCCC(=O)NNC1CC(=O)N(c2cccc(Cl)c2)C1=O (configuration not stated),"inconclusive [activator, single point]",–
O=C(Nc1ccc(Cl)cc1)c1cncs1,"inconclusive [activator, partial curve]",–

Structure (SMILES),Potency,growth rescue (activation)
Cc1cccc(NC(=O)c2ccc(COc3cccc4ccccc34)o2)n1,"inconclusive [activator, single point]",–
CCOC(=O)c1c(/N=C/C2C(=O)CC(C)(C)CC2=O)sc2c1CCCC2,"inconclusive [activator, single point]",–
COc1ccc(NCc2cc(=O)oc3cc(NC(C)=O)ccc23)cc1,–,inactive: -1.01%
CS/C(=N\S(=O)(=O)c1cccs1)Nc1ccc(F)c(Cl)c1,–,inactive: -2.65%
O=S(=O)(NCCc1ccc(F)cc1)c1ccc(F)cc1Br,"inconclusive [activator, single point]",–
Cc1ccc(Cl)c(OCC(=O)OCC(=O)c2ccc[nH]2)c1,"inconclusive [activator, partial curve]",–
Cc1ccc(NC(=O)c2cnn(-c3ccccc3)c2C)cc1C,"inconclusive [activator, single point]",–
COc1ccc(NC(=O)c2ccccc2-c2ccccc2)c(C)c1,–,inactive: -8.02%
CSc1ccccc1OCc1cc(C(=O)N(C)Cc2ccc(C)o2)no1,"inconclusive [activator, single point]",–
COc1ccccc1NC(=O)N1CCN(c2ccccc2F)CC1,"inconclusive [activator, partial curve]",–
Nc1c(-c2ccccc2)cnn1-c1cccc(Cl)c1,active: 15.8 µM,–
S=C1NCCc2ccccc2C1c1ccccc1Cl (configuration not stated),"inconclusive [activator, partial curve]",–
CCn1c(/C(C#N)=C/c2ccccc2Cl)nc2ccccc21,active: 17.8 µM,–
CCc1cccc(NC(=O)CSc2nc3ccsc3c(=O)n2CC)c1,"inconclusive [activator, partial curve]",–
CC(C)NC(=O)/C(C#N)=C/c1cccc(NC(=O)c2ccccc2Cl)c1,"inconclusive [activator, single point]",–
C=CCNS(=O)(=O)c1nc(C)c(Cl)c(C)c1C#N,"inconclusive [activator, partial curve]",–
C[C@@H]1CC[C@]2(C(=O)O[C@@H]3O[C@H](CO)[C@@H](O)[C@H](O)[C@H]3O)CC[C@]3(C)C(=CCC4[C@@]5(C)C[C@@H](O)[C@H](O)[C@@](C)(C(=O)O[C@@H]6[C@H](O)C[C@@]7(C)C(CC[C@]8(C)C7CC=C7[C@H]9[C@](C(=O)O[C@@H]%10O[C@H](CO)[C@@H](O)[C@H](O)[C@H]%10O)(CC[C@@H](C)[C@@]9(C)O)CC[C@]78C)[C@@]6(CO)C(=O)O)C5CC[C@]43C)[C@@H]2[C@]1(C)O (some centres not stated),–,inactive: 12.4%
CN(Cc1ccccc1)C(=O)CN1CCN(S(=O)(=O)c2ccc(Cl)c(Cl)c2)CC1,"inconclusive [activator, partial curve, poor fit]",–
COc1ccc(/C=N/Nc2nc(-c3cccnc3)nc3ccccc23)c(OC)c1,–,inactive: 15.9%
CC(C)c1ccc(C2CC(c3ccc(Br)cc3)=NN2C(N)=S)cc1 (configuration not stated),–,inactive: -6.4%
CCOc1ccc(C(=O)OCc2nnc(-c3cccs3)o2)cc1OC,"inconclusive [activator, partial curve]",–
